IC50 is the fitted dose that halves viability relative to control wells, and lower means more sensitive; a limit (>, <) means that the fit lies beyond the doses tested. For AUC the same curve is integrated over the 256-fold range of doses and scaled to a fraction; it is 1 without any effect and falls as sensitivity rises. For part of these data: The top dose, if marked as inferred, is not printed in the source and was worked back from the curve model. For part of these data: An entry number marks a drug with two screens in the source, which often give different values.
Experiments:
Test in all cases: Viability of human cancer cell lines after 72 h of drug (GDSC screen)
JNJ-26854165 = compound: c1ccc2c(CCNc3ccc(Nc4ccncc4)cc3)c[nH]c2c1 [JNJ-26854165]; details: top dose 10 µM
Experimental: (§1)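 Human cancer cell lines in 384-well plates, medium with 10% serum, drug for 72 h over a 256-fold dose range (nine 2-fold or five 4-fold steps up to the top dose). Adherent lines were fixed and stained with the nucleic acid dye Syto60, suspension lines read with resazurin; signal relative to control wells, capped at 0 and 100%. One two-parameter sigmoid per drug and line, fitted in a mixed model over all curves with the slope shared within a line.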

SB-715992 = compound: Cc1ccc(C(=O)N(CCCN)[C@@H](c2nc3cc(Cl)ccc3c(=O)n2Cc2ccccc2)C(C)C)cc1 [SB-715992]; details: top dose 0.128 µM; top dose inferred
Experimental: as §1

OSI-906 = compound: C[C@]1(O)C[C@@H](c2nc(-c3ccc4ccc(-c5ccccc5)nc4c3)c3c(N)nccn32)C1 [OSI-906]; details: top dose 2.56 µM; top dose inferred
Experimental: as §1

JQ1 = compound: Cc1sc2c(c1C)C(c1ccc(Cl)cc1)=N[C@@H](CC(=O)OC(C)(C)C)c1nnc(C)n1-2 [JQ1]
Experimental: as §1

Belinostat = compound: O=C(/C=C/c1cccc(S(=O)(=O)Nc2ccccc2)c1)NO [Belinostat]; details: top dose 20 µM; top dose inferred
Experimental: as §1

AMG-706 = compound: CC1(C)CNc2cc(NC(=O)c3cccnc3NCc3ccncc3)ccc21 [AMG-706]; details: top dose 2 µM; top dose inferred
Experimental: as §1

JNK Inhibitor VIII = compound: CCOc1nc(NC(=O)Cc2cc(OC)ccc2OC)cc(N)c1C#N [JNK Inhibitor VIII]; details: top dose 10 µM; top dose inferred
Experimental: as §1

FTI-277 = compound: COC(=O)[C@H](CCSC)NC(=O)c1ccc(NC[C@@H](N)CS)cc1-c1ccccc1 [FTI-277]; details: top dose 1.024 µM; top dose inferred
Experimental: as §1

YM155 = compound: COCC[n+]1c2c(n(Cc3cnccn3)c1C)C(=O)c1ccccc1C2=O [YM155]; details: top dose 5.12 µM
Experimental: as §1

NSC-207895 = compound: CN1CCN(c2ccc([N+](=O)[O-])c3no[n+]([O-])c23)CC1 [NSC-207895]; details: top dose 20 µM; top dose inferred
Experimental: as §1

[1] = top dose 1 µM, screen: GDSC drug entry 1218, top dose inferred
[2] = top dose 2.56 µM, screen: GDSC drug entry 163

Row | Cell Line | AUC (JNJ-26854165) | IC50 (JNJ-26854165) | AUC (SB-715992) | IC50 (SB-715992) | AUC (OSI-906) | IC50 (OSI-906) | AUC (JQ1; [1]) | IC50 (JQ1; [1]) | AUC (JQ1; [2]) | IC50 (JQ1; [2]) | AUC (Belinostat) | IC50 (Belinostat) | AUC (AMG-706) | IC50 (AMG-706) | AUC (JNK Inhibitor VIII) | IC50 (JNK Inhibitor VIII) | AUC (FTI-277) | IC50 (FTI-277) | AUC (YM155) | IC50 (YM155) | AUC (NSC-207895) | IC50 (NSC-207895)
1 | RERF-GC-1B (stomach, adherent) | 0.905 | > 10000 nM | 0.95 | > 128 nM | 0.75 | 923 nM | 0.955 | > 1000 nM | 0.6 | 311 nM | 0.767 | 8260 nM | 0.937 | > 2000 nM | 0.984 | > 10000 nM | 0.981 | > 1020 nM | 0.267 | 63.5 nM | 0.807 | 11800 nM
2 | NCI-H1944 (lung adenocarcinoma, adherent) | 0.862 | 9510 nM | 0.653 | 21.9 nM | 0.862 | 2440 nM | 0.983 | > 1000 nM | 0.647 | 422 nM | 0.357 | 488 nM | 0.943 | > 2000 nM | 0.946 | > 10000 nM | 0.948 | > 1020 nM | 0.084 | < 20 nM | 0.852 | 17100 nM
3 | CAL-54 (kidney, adherent) | 0.875 | > 10000 nM | 0.969 | > 128 nM | 0.912 | > 2560 nM | 0.981 | > 1000 nM | 0.84 | 2140 nM | 0.623 | 2870 nM | 0.985 | > 2000 nM | 0.965 | > 10000 nM | 0.984 | > 1020 nM | 0.831 | 3900 nM | 0.956 | > 20000 nM
4 | JEG-3 (urogenital system, adherent) | 0.955 | > 10000 nM | 0.966 | > 128 nM | 0.991 | > 2560 nM | 0.987 | > 1000 nM | 0.776 | 923 nM | 0.991 | > 20000 nM | 0.98 | > 2000 nM | 0.989 | > 10000 nM | 0.989 | > 1020 nM | 0.785 | 1970 nM | 0.957 | > 20000 nM
5 | VM-CUB-1 (bladder, adherent) | 0.933 | > 10000 nM | 0.987 | > 128 nM | 0.971 | > 2560 nM | 0.981 | > 1000 nM | 0.758 | 857 nM | 0.519 | 1400 nM | 0.938 | > 2000 nM | 0.942 | > 10000 nM | 0.944 | > 1020 nM | 0.028 | < 20 nM | 0.873 | 18200 nM
6 | HCC1143 (breast, adherent) | 0.895 | > 10000 nM | 0.831 | > 128 nM | 0.802 | 1900 nM | 0.947 | > 1000 nM | 0.869 | > 2560 nM | 0.561 | 1960 nM | 0.978 | > 2000 nM | 0.98 | > 10000 nM | 0.97 | > 1020 nM | 0.274 | 55.6 nM | 0.964 | > 20000 nM
7 | Detroit562 (head and neck, adherent) | 0.863 | 8100 nM | 0.963 | > 128 nM | 0.988 | > 2560 nM | 0.987 | > 1000 nM | 0.715 | 629 nM | 0.788 | 8390 nM | 0.984 | > 2000 nM | 0.985 | > 10000 nM | 0.965 | > 1020 nM | 0.284 | 80.3 nM | 0.985 | > 20000 nM
8 | SK-LU-1 (lung adenocarcinoma, adherent) | 0.925 | > 10000 nM | 0.94 | > 128 nM | 0.79 | 1490 nM | 0.978 | > 1000 nM | 0.741 | 966 nM | 0.588 | 2330 nM | 0.917 | > 2000 nM | 0.891 | > 10000 nM | 0.939 | > 1020 nM | 0.077 | < 20 nM | 0.967 | > 20000 nM
9 | PA-1 (ovary, adherent) | 0.779 | 3190 nM | 0.496 | 7.82 nM | 0.993 | > 2560 nM |  |  | 0.679 | 446 nM | 0.044 | < 78.1 nM | 0.993 | > 2000 nM | 0.993 | > 10000 nM | 0.945 | > 1020 nM | 0.011 | < 20 nM | 0.769 | 6000 nM
10 | KMRC-20 (kidney, adherent) | 0.891 | > 10000 nM | 0.986 | > 128 nM | 0.983 | > 2560 nM | 0.987 | > 1000 nM | 0.96 | > 2560 nM | 0.693 | 4380 nM | 0.966 | > 2000 nM | 0.986 | > 10000 nM | 0.975 | > 1020 nM | 0.052 | < 20 nM | 0.92 | > 20000 nM
11 | OSC-19 (head and neck, adherent) | 0.971 | > 10000 nM | 0.793 | 61.2 nM | 0.973 | > 2560 nM | 0.944 | > 1000 nM | 0.685 | 539 nM | 0.329 | 410 nM | 0.979 | > 2000 nM | 0.972 | > 10000 nM | 0.979 | > 1020 nM | 0.042 | < 20 nM | 0.985 | > 20000 nM
12 | HARA (lung squamous cell carcinoma, adherent) | 0.745 | 3610 nM | 0.728 | 40.2 nM | 0.966 | > 2560 nM | 0.981 | > 1000 nM | 0.821 | 1810 nM | 0.503 | 1280 nM | 0.948 | > 2000 nM | 0.965 | > 10000 nM | 0.958 | > 1020 nM | 0.04 | < 20 nM | 0.982 | > 20000 nM
13 | HuP-T4 (pancreas, adherent) | 0.954 | > 10000 nM | 0.725 | 36.5 nM | 0.979 | > 2560 nM |  |  | 0.85 | 2130 nM | 0.373 | 544 nM | 0.98 | > 2000 nM | 0.977 | > 10000 nM | 0.977 | > 1020 nM | 0.028 | < 20 nM | 0.941 | > 20000 nM
